Data on 17 variants can be found in the supplement of paper PMC7125110.

The labels stand for the following.
B1: glmS ribozyme (parent)
chain: AUAAAAGCGCCAGAACUACAGAAAUGUAGUUGACGAGGAGGAGGUUUAUCGAAUUUUCGGCGGAUGCCUCCAAA

What all share (details): with glucosamine-6-phosphate
In series [1] the parent is B1. The series can be described thus: self-cleavage kobs at 40 uM GlcN6P; higher = faster cleavage; RNA array. Summed up:
(§1)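 Barcoded ribozyme variants were transcribed in situ on sequenced MiSeq chips by E. coli RNA polymerase. At 37 °C, a hybridised Cy3 probe tracked them while glucosamine-6-phosphate (40 μM to 10 mM) in HEPES/KCl/Mg(OAc)2 buffer flowed in and tiles were imaged over ~14 h. Per-tile medians of signals normalised to baseline and to non-cleaving reference variants were fit to one- or two-exponential decays, giving kobs. kcat and KM came from weighted Michaelis–Menten fits across concentrations.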

Series [2] covers variants of B1. Nature of the series: self-cleavage kobs at 640 uM GlcN6P; higher = faster cleavage; RNA array. In short, it runs like this: as §1
In series [3] the parent is B1. The series can be described thus: self-cleavage kobs at 160 uM GlcN6P; higher = faster cleavage; RNA array. In short, it runs like this: as §1
Series [4] covers variants of B1. The series can be described thus: self-cleavage kobs at 10000 uM GlcN6P; higher = faster cleavage; RNA array. In short, it runs like this: as §1
The variants in series [5] derive from B1. The series can be described thus: self-cleavage kobs at 2500 uM GlcN6P; higher = faster cleavage; RNA array. In short, it runs like this:
as §1

± gives the standard error. This sample is rich in variants without activity. A value given as a limit tells only on which side of the number the result lay.

As to AUAAAAGCGCCAGAAAUACAGAAAUGUAGUUGACGAGGAGGAGGUUUAGCGAAUUUUCGGCGGAUGCCUCCAAA [C16A U49G], in series [1], the “self-cleavage kobs at 40 uM GlcN6P” value was below 1e-05 s⁻¹. For the same variant, in series [2], the “self-cleavage kobs at 640 uM GlcN6P” value was below 1e-05 s⁻¹. Also, the “self-cleavage kobs at 160 uM GlcN6P” value in series [3] is below 1e-05 s⁻¹.

With AUAAAAGCGCCAGAAAUACAGAAAUGUAGUUGACGAGGAGGAGGUUUAACGAAUUUUCGGCGGAUGCCUCCAAA [C16A U49A], the “self-cleavage kobs at 40 uM GlcN6P” value in series [1] is below 1e-05 s⁻¹. For the same variant, the “self-cleavage kobs at 10000 uM GlcN6P” value in series [4] is below 1e-05 s⁻¹.

AUAAAAGCGCCAGAAGUACAGAAAUGUAGUUGACGGGGAGGAGGUUUAGCGAAUUUUCGGCGGAUGCCUCCAAA [C16G A36G U49G]: in series [1], the “self-cleavage kobs at 40 uM GlcN6P” value is below 1e-05 s⁻¹. Moreover, in series [4], the “self-cleavage kobs at 10000 uM GlcN6P” value was below 1e-05 s⁻¹.

As to AUAAAAGCGCCAGAAAUACAGAAAUGUAAUUGACGAGGAGGAGGUUUAUCGAAUUUUCGGCGGAUGCCUCCAAA [C16A G29A], in series [1], the “self-cleavage kobs at 40 uM GlcN6P” value came out at 7.39e-05 ± 1.3e-05 s⁻¹. Besides, the “self-cleavage kobs at 640 uM GlcN6P” value in series [2] was 0.000549 ± 9.9e-05 s⁻¹. Besides, the “self-cleavage kobs at 160 uM GlcN6P” value in series [3] was determined as 0.000175 ± 3.3e-05 s⁻¹. Further, in series [5], the “self-cleavage kobs at 2500 uM GlcN6P” value came to 0.00127 ± 0.00024 s⁻¹. Also, in series [4], the “self-cleavage kobs at 10000 uM GlcN6P” value was determined as 0.00227 ± 0.00042 s⁻¹.

Consider AUAAAAGCGCCAGAAAUACAGAAAUGUAUUUGACGAGGAGGAGGUUUAUCGAAUUUUCGGCGGAUGCCUCCAAA [C16A G29U], for which the “self-cleavage kobs at 40 uM GlcN6P” value in series [1] is 0.000701 ± 7.4e-05 s⁻¹. Also, the “self-cleavage kobs at 640 uM GlcN6P” value in series [2] was determined as 0.00517 ± 0.00081 s⁻¹. Besides, in series [3], the “self-cleavage kobs at 160 uM GlcN6P” value worked out at 0.00212 ± 0.00064 s⁻¹. The “self-cleavage kobs at 2500 uM GlcN6P” value in series [5] turned out to be 0.0144 ± 0.0033 s⁻¹. The “self-cleavage kobs at 10000 uM GlcN6P” value in series [4] is 0.0387 ± 0.0071 s⁻¹.

With AUAAAAGCGCCAGAAAUACAGAAAUGUAGUUGACGACGAGGAGGUUUAUCCAAUUUUCGGCGGAUGCCUCCAAA [C16A G37C G51C], the “self-cleavage kobs at 40 uM GlcN6P” value in series [1] was below 1e-05 s⁻¹. The “self-cleavage kobs at 2500 uM GlcN6P” value in series [5] was below 1e-05 s⁻¹.

Turning to AUAAAAGCGCCAGAAAUACAGAAAUGUAGUCGACGAGGAGGGGUUUUAUCGAAUUUUCGGCGGAUGCCUGCAAA [C16A U31C A42G G44U C70G], the “self-cleavage kobs at 40 uM GlcN6P” value in series [1] is below 1e-05 s⁻¹.

Take AUAAAAGCGCCAGAAAUACAGAAAUGUAGUUGACGAGGAGGAGGUUUAUCAAAUUUUAGGCGGAUGCCUCCAAA [C16A G51A C58A]: the “self-cleavage kobs at 40 uM GlcN6P” value in series [1] is below 1e-05 s⁻¹. In addition, in series [5], the “self-cleavage kobs at 2500 uM GlcN6P” value was below 1e-05 s⁻¹.

Consider AUAAAAGCGCCAGAAAUACAGAAAUGUAGUUGACGAGGAGGAGGUUUAUCGAAUUGUCGGCGGAUGCAUCCAAA [C16A U56G C68A], for which the “self-cleavage kobs at 40 uM GlcN6P” value in series [1] is below 1e-05 s⁻¹.

As for AUAAAAGCGCCAGAAGUACAGAAAUGUAGUUGACGGGGAGGAGGUUUAUCGAAUUUUCGGCGGAUGCCUCCAAA [C16G A36G], in series [1], the “self-cleavage kobs at 40 uM GlcN6P” value was below 1e-05 s⁻¹.

Turning to AUAAAAGCGCCAGAAAUACAGAAAUGUAGUUCGCGAGGAGGAGGUUUACCGAAUUUUCGGCGGAUGCCUCCAAA [C16A G32C A33G U49C], the “self-cleavage kobs at 40 uM GlcN6P” value in series [1] was below 1e-05 s⁻¹. For the same variant, in series [2], the “self-cleavage kobs at 640 uM GlcN6P” value is below 1e-05 s⁻¹. Moreover, the “self-cleavage kobs at 160 uM GlcN6P” value in series [3] was below 1e-05 s⁻¹.

As for AUAAAAGCGCCAGAAGUACAGAAAUGUAGUUGACGAGGAGGAGGUUUAUCGAAUUUUCGGCGGCUGCCUCCAAA [C16G A64C], the “self-cleavage kobs at 40 uM GlcN6P” value in series [1] is below 1e-05 s⁻¹. Besides, the “self-cleavage kobs at 160 uM GlcN6P” value in series [3] is below 1e-05 s⁻¹.

As for AUAAAAGCGCCAGAAAUACAGAAAUAUAGUUGACGAGGAGGAGGUUUAUCGAAUUUUCGGCGGAUGCGUCCAAA [C16A G26A C68G], in series [1], the “self-cleavage kobs at 40 uM GlcN6P” value turned out to be 3.64e-05 ± 1.7e-05 s⁻¹. Moreover, the “self-cleavage kobs at 10000 uM GlcN6P” value in series [4] came out at 3.65e-05 ± 1.5e-05 s⁻¹.

Regarding AUAAAAGCGCCAGAAGUACAGAAAUGUAGUUGAAGAGGAGGAGGUUUAUCGAAUUUUCGGCGGAUGCCUCCAAA [C16G C34A], in series [1], the “self-cleavage kobs at 40 uM GlcN6P” value was below 1e-05 s⁻¹. Further, the “self-cleavage kobs at 640 uM GlcN6P” value in series [2] is below 1e-05 s⁻¹. Besides, in series [4], the “self-cleavage kobs at 10000 uM GlcN6P” value is below 1e-05 s⁻¹.

In the case of AUAAAAGCGCCAGAAAUACAGAAAUGUAGUUGACGAGGAGGAGGUUUAUCGAAUUUUCGGCGGAUCCCUCCAAA [C16A G66C], the “self-cleavage kobs at 40 uM GlcN6P” value in series [1] is below 1e-05 s⁻¹. Also, in series [4], the “self-cleavage kobs at 10000 uM GlcN6P” value turned out to be 2.41e-05 ± 1.1e-05 s⁻¹.

Take AUAAAAGCGCCAGAAGUACAGAAAUGUAGUUGACGAGGGGGAGGUUUAUCUAAUAUUCGGCGGAUGCCUCCAAA [C16G A39G G51U U55A]: the “self-cleavage kobs at 40 uM GlcN6P” value in series [1] is below 1e-05 s⁻¹.

For the variant AUAAAAGCGCCAGAAGUACAGAAAUGUAGUUGACGAGGAGGAGGUUUAUCGAAUUUUCGGCGGGUGCGUCCAAA [C16G A64G C68G], the “self-cleavage kobs at 40 uM GlcN6P” value in series [1] is below 1e-05 s⁻¹.
